Test [1] concerns the target WT full-length β4 (mouse) protein stably expressed in CHO cells (mouse) (UniProt Q7M729). As to the kind of experiment: SDS-resistant dimer band on Western blot; lysates of CHO cells stably expressing β4, no cross-linker; LDS sample buffer with 5 mM DTT, 70 °C 3 min; probed with anti-β4.
Test [2] shares this target. As to the kind of experiment: cross-linking; CHO cells stably expressing β4 incubated with 1 mM BS^3 (cell-impermeable) in PBS for 30 min at room temperature; Western blot with anti-β4.
For test [3], the target named is mouse β4 mutant with a deletion of the N-terminal segment (residues 30–37), stably expressed in CHO cells (mouse) (UniProt Q7M729). Put plainly: SDS-resistant dimer band on Western blot; lysates of CHO cells stably expressing β4, no cross-linker; LDS sample buffer with 5 mM DTT, 70 °C 3 min; probed with anti-β4. (A western blot detects proteins with antibodies after separation by electrophoresis.)

Test [4] concerns the target human β4 subunit extracellular domain fragment (residues 30–152) (human) (UniProt Q8IWT1). As to the kind of experiment: SEC; monomer fraction at 9 mg/ml incubated 0–12 h at 20 °C under non-reducing conditions; Superdex 75 10/300 GL in 20 mM Tris-HCl (pH 8.0), 150 mM NaCl, 10% glycerol, 5 mM β-mercaptoethanol at 4 °C; fractions on reducing SDS-PAGE; both purified. (In general: Size exclusion chromatography separates by hydrodynamic size, large species first.)

Test [5] has the same target. As to the kind of experiment: crystal structure; human β4ex, hexagonal crystal form, 2.2 Å; 10% PEG1000 and 10% PEG8000, 20 °C; both purified.

These are yes or no findings as the source states them, for the method shown. For some assays here: Binding seen in cells or lysates may run through a third protein. Some binding calls cover weakened binding; strength is not graded here.

B1: WT full-length β4 (mouse) protein stably expressed in CHO cells (protein, UniProt Q7M729 31-228)
chain: LEVSVGKATTIYAINGSSILLPCTFSSCYGFENLYFKWSYNNSETSRILIDGIVKNDKSDPKVRVKDDDRITLEGSTKEKTNNISILLSDLEFSDTGRYTCFVRNPKEKDLNNSATIFLQVVDKLEKVDNTVTLIILAVVGGVIGLLVCILLLKKLITFILKKTREKKKECLVSSSGNDNTENGLPGSKAEEKPPTKV
modifications: N-glycosylated (β4 protein expressed in CHO cells is N-glycosylated)
Turning to B1, the binding entry in test [1] and in test [2] was “binds” throughout.

B2: mouse β4 mutant with a deletion of the N-terminal segment (residues 30–37), stably expressed in CHO cells (protein, UniProt Q7M729)
chain: ATTIYAINGSSILLPCTFSSCYGFENLYFKWSYNNSETSRILIDGIVKNDKSDPKVRVKDDDRITLEGSTKEKTNNISILLSDLEFSDTGRYTCFVRNPKEKDLNNSATIFLQVVDKLEKVDNTVTLIILAVVGGVIGLLVCILLLKKLITFILKKTREKKKECLVSSSGNDNTENGLPGSKAEEKPPTKV
As to B2, the binding entry in test [3] is “no binding”.

B3: human β4 subunit extracellular domain fragment (residues 30–152) (domain or fragment, UniProt Q8IWT1-1 30-152, looked up)
chain: SLEVSVGKATDIYAVNGTEILLPCTFSSCFGFEDLHFRWTYNSSDAFKILIEGTVKNEKSDPKVTLKDDDRITLVGSTKEKMNNISIVLRDLEFSDTGKYTCHVKNPKENNLQHHATIFLQVV
notes: voltage-gated sodium channel β4 subunit, human, GenBank NP_777594, residues 30–152; all three Cys residues kept; His tag cleaved by tobacco etch virus protease; also called human β4ex; human β4 (hexagonal form); source: E. coli cell-free protein synthesis, purified (HisTrap, HiTrap Q, Superdex 75); not shown: His tag, N-terminal, cleaved
B3: the binding result in test [4] and in test [5] was “binds” throughout.

The values above are taken from article PMC5555201, “Parallel homodimer structures of the extracellular domains of the voltage-gated sodium channel β4 subunit explain its role in cell–cell adhesion” (The Journal of Biological Chemistry, 2017).
